Test results published in PubChem BioAssay AID463173 (ICCB-Longwood Screening Facility, Harvard Medical School, 2010).
The whole screen tested about 52,000 compounds, of which about 1,700 (3.3%) were called active. Cut-off read from the data, not from the text of the source: active = survival mostly below about 52% (no sharp cut-off); inactive = mostly above about 56%. This is one part of the list.

The compounds below were run on Wild type (assay: S. aureus survival, RN4220 and DeltatarO strains – OD600, teichoic acid synthesis inhibitors, primary screen (AID 463173)). Settings: S. aureus RN4220 wild type/DeltatarO growth, OD600, 18 h, hits give low values, screened at 18.75 µg/mL (by protocol).

Q: CC1(C)CC2(CCO1)NNC(=S)NN2 was tested. Which survival did it give?
A: inactive: 99%

Q: COC(=O)C1=C(c2ccccc2)c2ccccc2S(=O)(=O)N1CC(=O)Nc1ccc(F)c(F)c1 was tested. Which survival did it give?
A: inactive: 63%

Q: For Cc1ccc(CNC(=O)Cn2c(=O)cc(C(F)(F)F)c3c(C)nn(C)c32)cc1, which survival is on record?
A: inactive: 74%

Q: For Cc1sc2ncn(CC(=O)N3CCN(c4ccc(F)cc4)CC3)c(=O)c2c1S(=O)(=O)N1CCC(C)CC1, which survival is on record?
A: inactive: 84%

Q: How did the survival turn out when Cc1ccc(CNC(=O)C2CCN(S(=O)(=O)c3c(C)noc3/C=C/c3cccs3)CC2)cc1 was run?
A: inactive: 102%

Q: With CCCCOc1ccc(-c2nnc(-c3ccco3)n2-c2ccccc2)cc1 as the compound, how does the survival read?
A: inactive: 110%

Q: CCOc1ccc(-c2nc(Cn3c(=O)cc(-c4ccccc4)c4c(C)nn(C)c43)c(C)o2)cc1 was tested. Which survival did it give?
A: inactive: 121%

Q: How did the survival turn out when O=C(O)CCC(=O)Nc1ccc(-c2ccccc2)cc1 was run?
A: inactive: 100%

Q: With Cc1cccc(OCc2nnc(SCC(=O)N(C(C)C)C(C)C)n2Cc2ccco2)c1C as the compound, how does the survival read?
A: inactive: 113%

Q: For O=C(CCS(=O)(=O)c1cc2c(cc1Cl)NC(=O)CO2)NCc1ccccc1Cl, which survival is on record?
A: inactive: 88%

Q: Which survival does the source give for CSc1ncc(C(=O)NCc2cccc(F)c2)c(-c2ccccc2)n1 here?
A: inactive: 82%

Q: Which survival does the source give for CC(C)Oc1ccc(CNC(=O)c2ccc(CN3CC(=O)N4CCCCC4C3=O)cc2)cc1 (stereo unspecified) here?
A: inactive: 124%

Q: Oc1c(C(c2ccc(Cl)cc2Cl)N2CCN(c3ccccc3)CC2)sc2nc(-c3ccco3)nn12 (stereo unspecified) was tested. Which survival did it give?
A: inactive: 75%

Q: With O=C(NCc1cccc(Cl)c1)c1ccc(NC(=O)N2CC3CCCN3c3ccccc32)cc1 (stereo unspecified) as the compound, how does the survival read?
A: inactive: 66%

Q: How did the survival turn out when O=C(Nc1ccc2nc(SCC(=O)N3CCc4ccccc43)sc2c1)c1ccc(F)cc1 was run?
A: inactive: 80%

Q: For O=c1c2oc3ccccc3c2n(Cc2ccccc2Cl)c(=O)n1Cc1ccco1, which survival is on record?
A: inactive: 84%

Q: COc1ccc(CN(Cc2ccco2)c2cnc(S(C)(=O)=O)nc2C(=O)Nc2ccc(C)c(Cl)c2)cc1 was tested. Which survival did it give?
A: inactive: 82%

Q: CCCn1c(SCC(N)=O)nnc1C(C)C was tested. Which survival did it give?
A: inactive: 101%

Q: How did the survival turn out when CCCc1nc(SC)ncc1C(=O)N1CCN(c2ccc(Cl)cc2)CC1 was run?
A: inactive: 63%

Q: Which survival does the source give for Cc1ccc(NC(=O)c2cnn3c(C(F)F)cc(-c4ccccc4)nc23)cc1F here?
A: inactive: 86%

Q: With CCCn1c(SCc2nc(-c3ccc(OC)c(OC)c3)no2)nnc1-c1ccccc1 as the compound, how does the survival read?
A: inactive: 88%

Q: Which survival does the source give for CC(C)Oc1ccc(C(=O)N2CCN(CCc3ccccn3)CC2)cc1 here?
A: inactive: 86%

Q: For O=C(NCCc1ccccc1)C1CCC(CNS(=O)(=O)c2ccccc2)CC1 (stereo unspecified), which survival is on record?
A: inactive: 81%

Q: With CC1CCN(C(c2ccccc2)c2nnnn2Cc2ccc(F)cc2)CC1 (stereo unspecified) as the compound, how does the survival read?
A: inactive: 118%

Q: With CC1CCc2nn(CC(=O)Nc3ccccc3Cl)cc2C1 (stereo unspecified) as the compound, how does the survival read?
A: inactive: 77%

Q: With COc1ccc(OC)c(CNC(=O)c2ccc(-c3nc(CSc4ccccc4)c(C)o3)cc2)c1 as the compound, how does the survival read?
A: inactive: 129%

Q: CCOc1ccc(NC(=O)NCCc2c(C)nn(C)c2C)cc1 was tested. Which survival did it give?
A: inactive: 60%

Q: With CCSc1nnc2c3cc(Br)ccc3n(C)c2n1 as the compound, how does the survival read?
A: inactive: 96%

Q: With CN(Cc1ccccc1)S(=O)(=O)c1ccc(-c2cnc(C3CC3)o2)cc1 as the compound, how does the survival read?
A: inactive: 81%

Q: How did the survival turn out when Cc1c(C2=CCN(S(=O)(=O)c3cccc(Cl)c3)CC2)c2ccccc2n1CC(=O)N1CCCC1 was run?
A: inactive: 97%

Q: Which survival does the source give for Cc1ccc(NC(=O)C(C)Sc2nc(=O)cc(N)n2-c2cccc(C)c2)cc1 (stereo unspecified) here?
A: inactive: 77%

Q: For COc1cccc(S(=O)(=O)N2CCN(Cc3ccc4c(c3)OCO4)CC2)c1, which survival is on record?
A: inactive: 71%

Q: For COc1ccc(NC(=O)C(=O)NCC(c2cccnc2)N2CCc3ccccc32)cc1OC (stereo unspecified), which survival is on record?
A: inactive: 93%

Q: For CCc1ccc(-c2nc3c(c(SCc4ccccc4F)n2)Cc2c(CO)cnc(C)c2O3)cc1, which survival is on record?
A: inactive: 83%

Q: Which survival does the source give for Cc1cccc(N2CCN(C(=O)CN3CCSc4ccccc43)CC2C)c1 (stereo unspecified) here?
A: inactive: 59%

Q: Which survival does the source give for CC(NCc1ccc2c(c1)OCO2)C(=O)NC1CCCCC1 (stereo unspecified) here?
A: inactive: 103%

Q: Which survival does the source give for Cc1ccc(C)c(NC(=O)CN2C(=O)COc3ccc(Cl)cc32)c1 here?
A: inactive: 77%

Q: With O=C(Nc1c(C(=O)Nc2ccc(F)cc2)oc2ccccc12)c1ccccc1F as the compound, how does the survival read?
A: inactive: 30%

Q: Which survival does the source give for Cn1c(=O)nc2n(-c3ccc(Cl)c(Cl)c3)c3cc(Cl)ccc3cc-2c1=O here?
A: inactive: 76%

Q: Which survival does the source give for COc1ccccc1CNC(=O)C1CCCN(c2nnc(-n3c(C)ccc3C)s2)C1 (stereo unspecified) here?
A: inactive: 84%

Q: For CC1=C(C(=O)OCC2CCCCC2)C(c2ccccc2F)CC(=O)N1 (stereo unspecified), which survival is on record?
A: inactive: 87%

Q: Which survival does the source give for O=S(=O)(Nc1ccncc1)c1ccccc1 here?
A: inactive: 114%

Q: With Cc1nc2nc(SCC(=O)NCCc3ccccc3)nn2c(C)c1Cc1c(F)cccc1Cl as the compound, how does the survival read?
A: inactive: 65%

Q: How did the survival turn out when Cc1ccccc1CNS(=O)(=O)c1csc(C(N)=O)c1 was run?
A: inactive: 128%

Q: How did the survival turn out when COc1ccc(C(=O)N(Cc2ccc(C(C)C)cc2)C2CCS(=O)(=O)C2)cc1 (stereo unspecified) was run?
A: inactive: 86%

Q: For NC1CCSc2ccccc21 (stereo unspecified), which survival is on record?
A: inactive: 103%

Q: How did the survival turn out when Cc1ccc(C(C)C)c(OCC(=O)N2CCC(c3nc4ccccc4o3)CC2)c1 was run?
A: inactive: 103%

Q: How did the survival turn out when CCOc1ccccc1C(=O)Nc1ccc2c(c1)N(C)C(=O)c1ccccc1S2 was run?
A: inactive: 67%

Q: CNC(=O)C1c2ccccc2Oc2ccccc21 was tested. Which survival did it give?
A: inactive: 116%

Q: How did the survival turn out when C/C(CCc1ccc2c(c1)OCO2)=N\N=C1/NC(=O)CC(C(=O)O)S1 (stereo unspecified) was run?
A: inactive: 106%

Q: Which survival does the source give for CCn1c(SCCOc2ccccc2F)nc2ccccc21 here?
A: active: -1%

Q: How did the survival turn out when Cc1nn(-c2ccc(N3CCOCC3)nn2)c(C)c1CCC(=O)NCc1ccc(OC(C)C)cc1 was run?
A: inactive: 64%

Q: Cc1c(C2=CCN(S(=O)(=O)c3ccc(CC(C)C)cc3)CC2)c2ccccc2n1CC(=O)N1CCCC1 was tested. Which survival did it give?
A: inactive: 126%

Q: Which survival does the source give for c1ccc(Cn2nnc3c(N4CCCC4)ncnc32)cc1 here?
A: inactive: 97%

Q: With Cc1cccc(CC(C(=O)Nc2ccccc2)c2nn[nH]n2)c1 (stereo unspecified) as the compound, how does the survival read?
A: inactive: 107%

Q: With CCOc1ccc(NS(=O)(=O)c2ccc3[nH]c4c(c3c2)CCCC4)cc1 as the compound, how does the survival read?
A: inactive: 64%

Q: How did the survival turn out when Cc1nn2c(=O)cc(COC(=O)c3cccc(NC(=O)c4cccs4)c3)nc2s1 was run?
A: inactive: 80%

Q: Which survival does the source give for Cc1cccc(N(C)S(=O)(=O)c2cc3c(cc2Cl)NC(=O)CO3)c1 here?
A: inactive: 75%

Q: COc1ccc(N(CC(=O)N2CCN(c3cccc(C)c3C)CC2)S(=O)(=O)c2c(C)noc2C)cc1 was tested. Which survival did it give?
A: inactive: 83%

Q: COc1ccc(-c2cn3nc(N4CCC(C(=O)Nc5cccc(C)c5C)CC4)sc3n2)cc1 was tested. Which survival did it give?
A: inactive: 60%

Q: For COc1ccc2nc(N(Cc3cccnc3)C(=O)c3ccc4c(c3)OCCO4)sc2c1, which survival is on record?
A: inactive: 65%

Q: For Cc1ccc(CNS(=O)(=O)c2ccc3c(c2)CCN3S(C)(=O)=O)cc1, which survival is on record?
A: inactive: 87%

Q: O=C(O)COc1ccccc1/C=N\n1cnnc1 was tested. Which survival did it give?
A: inactive: 105%

Q: With CCCSc1ncc(Cl)c(C(=O)Nc2sc3c(c2C(=O)NCCOC)CCCC3)n1 as the compound, how does the survival read?
A: inactive: 107%

Q: For Cc1c(Cl)cccc1NC(=O)CSc1nc(=O)n(Cc2ccccn2)c2c1CCC2, which survival is on record?
A: inactive: 119%

Q: With CCCCOC(=O)c1ccc(NC(=O)c2cc3c(=O)n4cccc(C)c4nc3n2C)cc1 as the compound, how does the survival read?
A: inactive: 85%

Q: Which survival does the source give for O=C(Nc1ccc(F)cc1F)c1cc(-c2ccccc2O)no1 here?
A: inactive: 89%

Q: For Cc1ccc(NC(=O)Cn2c(=O)n(CCCCC(=O)NCCc3ccccc3)c(=O)c3ccccc32)c(C)c1, which survival is on record?
A: inactive: 106%

Q: Cc1nn2c(=O)cc(COC(=O)c3ccc(NC(=O)C4CCCCC4)cc3)nc2s1 was tested. Which survival did it give?
A: inactive: 124%

Q: COc1cc(NC(=O)Cn2nc(C(F)(F)F)c3c2CCCC3)c(OC)cc1Cl was tested. Which survival did it give?
A: inactive: 87%

Q: With COCCNC(=O)CCCn1c(=O)c2cc(OC)c(OC)cc2n(CC(=O)Nc2ccc(F)cc2)c1=O as the compound, how does the survival read?
A: inactive: 87%

Q: O=C(COc1ccccc1Cl)Nc1ccc2oc(-c3ccccc3F)nc2c1 was tested. Which survival did it give?
A: inactive: 81%

Q: COc1ccccc1OCC(O)CN (stereo unspecified) was tested. Which survival did it give?
A: inactive: 107%

Q: How did the survival turn out when CC1CC(C)CN(c2c3c(nc4cc(-c5ccc(F)cc5)nn24)CCC3)C1 (stereo unspecified) was run?
A: inactive: 101%

Q: Which survival does the source give for CNC(=O)C1=C(C)NC(=O)NC1c1cccs1 (stereo unspecified) here?
A: inactive: 99%

Q: With CCOC(=O)C1CCN(CCC(=O)Nc2ccc(Br)c(C)c2)CC1 as the compound, how does the survival read?
A: inactive: 69%

Q: Which survival does the source give for O=C(CSc1nc(=O)[nH]c2c1CCCC2)Nc1ccccc1C(F)(F)F here?
A: inactive: 132%

Q: Which survival does the source give for Cc1ccc(NC(=O)C(NS(=O)(=O)c2ccc3c(c2)CCC(=O)N3)c2ccccc2)cc1C (stereo unspecified) here?
A: inactive: 95%

Q: Which survival does the source give for CCOc1ccc(CNC(=O)c2ccc(-c3nc(CS(=O)(=O)c4ccccc4)c(C)o3)cc2)cc1 here?
A: inactive: 67%

Q: With COc1ccc(NC(=O)c2nnn(Cc3nc(-c4cc(Br)ccc4OC)oc3C)c2C)cc1 as the compound, how does the survival read?
A: inactive: 67%

Q: CCOc1cccc(C2c3c(oc4ccc(F)cc4c3=O)C(=O)N2CCc2ccc(OC)cc2)c1 (stereo unspecified) was tested. Which survival did it give?
A: inactive: 78%

Q: c1cn(CCCNc2ncnc3sc4c(c23)CCCCC4)cn1 was tested. Which survival did it give?
A: inactive: 109%

Q: Which survival does the source give for COc1ccc(Nc2cc(C(=O)NC3CCCC3)c3ccccc3n2)c(OC)c1 here?
A: inactive: 82%

Q: How did the survival turn out when CCNC(=O)Cn1c(-c2cccs2)cc2ccccc21 was run?
A: inactive: 74%

Q: Cc1ccc(CN(C(=O)Nc2cccc(Cl)c2)c2ccccn2)cc1 was tested. Which survival did it give?
A: inactive: 79%

Q: For COc1ccc(NC(=O)C2CCN(S(=O)(=O)c3ccc4c(c3)CCCC(=O)N4)CC2)cc1Cl, which survival is on record?
A: inactive: 77%

Q: How did the survival turn out when Cc1cc(C)nc(NCC(O)COc2ccccc2C)n1 (stereo unspecified) was run?
A: inactive: 111%

Q: Which survival does the source give for Cc1oc(C)c2c(=O)cc(-c3ccc4c(c3)OCO4)cc(OC(=O)c3ccccc3Br)c12 here?
A: inactive: 104%

Q: CCn1ccc2cc(S(=O)(=O)N3CCCN(C(=O)NCC(C)C)CC3)ccc21 was tested. Which survival did it give?
A: inactive: 75%

Q: COc1cc(OC)c(NC(=O)c2cc(CN3CCOCC3)on2)cc1Cl was tested. Which survival did it give?
A: inactive: 71%

Q: With COc1ccc(S(=O)(=O)N2CCN(c3ccccc3OC)CC2)cc1-c1noc(C)n1 as the compound, how does the survival read?
A: inactive: 122%
